Reference: PubChem BioAssay AID493208 (National Center for Advancing Translational Sciences (NCATS), 2011)
Hit rate of the full screen: of about 44,000 compounds, about 340 (0.77%) were called active. Another 5% or so got no clear call; they are omitted. Calls follow the shape of the dose curve; as a rule, active = well fitted inhibition curve with a large enough effect; inconclusive = small, poorly fitted or top-dose-only effect; inactive = flat fitted curve, though single readings scatter. This is one part of the list.

assay: Acumen qHTS Assay for Inhibitors of the mTORC1 Signaling Pathway in MEF (Tsc2-/-, p53-/-) Cells: Sytravon; conditions: phospho-rpS6 immunofluorescence/PI, 24 h; series mostly up to 38.3 µM; activity change, negative = inhibition: at the top concentration;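 also: plate controls were DMSO for no effect and rapamycin for full effect; nearly all actives have a fitted effect of over 50% in size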
Procedure, shortened: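 Cell-based qHTS: Tsc2-/- p53-/- MEF, 24 h cpd, 37 °C; fix/perm, anti-phospho-S6 Alexa-488 + PI; Acumen 488 nm scan; pS6/PI ratio, % positive cells; rapamycin 7.5 nM = inhibition ref; PI count = viability.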

Activity change, negative = inhibition, inactive:
COc1ccc(C(=O)c2cn(Cc3cccc(C)c3)c3cc4c(cc3c2=O)OCCO4)cc1OC -8.48%, Cc1nn2c(=O)cc(COC(=O)c3ccc(F)cc3)nc2s1 0.712%, Cc1ccc(N(C(=O)c2cccc(C)c2)S(=O)(=O)c2ccc(Cl)cc2)cc1 -11.4%, COc1ccc(CCNC(=O)Cn2ccc3cc(S(=O)(=O)N4CCCCC4)ccc32)cc1OC -2.65%, COC(=O)c1ccccc1NC(=O)c1cc(=O)c2ccc(C)c(C)c2o1 0.224%, Cn1nnnc1SCCCNCc1ccccc1OCc1ccccc1F -10.9%, O=S(=O)(c1ccc2[nH]c3c(c2c1)CCCCC3)N1CCN(c2ccccc2)CC1 5.27%, COc1cccc(CNC(=O)c2cc(-c3cccc(OC)c3)n[nH]2)c1 -1.05%, O=C(CCn1cnc2ccccc2c1=O)NCc1ccccc1 -4.5%, Cc1ccc(N2CCN(C(=O)CCc3c(C)nc4c(c3C)c(=O)n(C)c(=O)n4C)CC2)c(C)c1 6.15%, Cc1cccc(C)c1NC(=O)c1oc2c(c1C)-c1nn(Cc3ccccc3)cc1CC2 3.05%, CCCSCCCNC(=O)CN1C(=O)COc2ccc(S(=O)(=O)N3CCC(C)CC3)cc21 4.71%, COc1cc(OC)c(N(C)C(=O)c2nn(C)c3c2CSc2ccccc2-3)cc1Cl -4.82%, CN1C(=O)Cc2cc(S(=O)(=O)CCC(=O)Nc3ccccc3)ccc21 -3.81%, CCN(CC)CCCNC(=O)Cn1nc(N2CCN(c3ccccc3OC)CC2)ccc1=O -9.16%, Cc1nc2c(C(=O)N(C)Cc3ccccc3)c[nH]n2c(=O)c1Cc1ccc(Cl)cc1 -21%, Cc1ccc(Cl)cc1N1CCN(C(=O)c2ccc3c(c2)N(Cc2ccccc2F)C(=O)c2ccccc2S3(=O)=O)CC1 -10.5%, O=C(NCC(c1ccccc1)c1ccccc1)c1nn(-c2ccccc2Cl)nc1CO -3.69%, CCOc1ccccc1NC(=O)c1sc(-n2nc(C)c(CCC(C)C)c2C)nc1C -10.6%, CCc1ccc(S(=O)(=O)Nc2ccc(-c3ccc(N4CCCCCC4)nn3)cc2)cc1 -4.54%, CCCCOc1ccc(S(=O)(=O)N2CCN(c3ccccc3OCC)CC2)cc1 0.43%, COc1ccc(Cl)cc1NC(=O)CN(C)S(=O)(=O)c1ccc(Br)s1 1.4%, Cc1cc(C)c2oc(-c3cccc(NC(=O)c4ccco4)c3)nc2c1 8.91%, CCC1CCCCN1CCCNC(=O)CN1C(=O)CSc2ccc(S(=O)(=O)N3CCC(C)CC3)cc21 (stereo not given) -21%, Cc1cc2c(c3oc(=O)c4ccccc4c13)CN(Cc1ccc(F)cc1)CO2 -0.117%, COCCCNC(=O)CCC(=O)N1Cc2ccccc2Oc2ncccc21 -8.84%, O=C(Nc1cccc(Cl)c1)Nc1ccccc1OCc1cc(=O)n2ccccc2n1 1.42%, Cc1ccc(CNC(=O)Cn2ccn(-c3ccc(C)c(C)c3)c(=O)c2=O)cc1 5.45%, CN(C)c1ccc(CNC(=O)CN(C)S(=O)(=O)c2ccc3c(c2)c(=O)n(C)c(=O)n3C)cc1 -14.6%, Cc1ccc(CNC(=O)CN(c2ccc(Cl)cc2Cl)S(=O)(=O)c2ccccc2)cc1 1.74%, COc1cccc(C(=O)Nc2c(C(=O)NC(C)(C)C)oc3ccccc23)c1 -16.7%, Cc1ccc(CCNC(=O)Cn2c(-c3cccs3)cc3cc(F)ccc32)cc1 -15.1%, CCc1cccc2sc(N3CCN(C(=O)c4cc5ccccc5cc4OC)CC3)nc12 -12.8%, CCc1cccc(NC(=O)Cn2c(=O)n(CCc3ccc(OC)c(OC)c3)c(=O)c3ccccc32)c1 -5.49%, COc1ccc(CC(=O)NCc2ccc3c(c2)CCN3C(=O)c2ccc(C)cc2)cc1OC -7.22%, O=C(Cn1ncc2c(=O)oc3ccccc3c21)NCc1ccccc1Cl 4.65%, O=C(Cn1ncc2c3ccccc3n(Cc3ccccc3F)c2c1=O)NCCc1ccc(Cl)cc1 -0.368%, CCOC(=O)c1c(C)[nH]c(C)c1S(=O)(=O)N1CCCC(C(=O)Nc2ccc(OC)c(Cl)c2)C1 (stereo not given) 1.05%, COc1cccc(CNC(=O)CSc2c3c(nc4ccc(Cl)cc24)CCCC3)c1OC -25.6%, CC1=C(C(=O)Nc2ccc(C)cc2C)C(c2ccc(Cl)cc2)n2nc(C(=O)OC(C)C)nc2N1 (stereo not given) -14.5%, CCc1ccc(NC(=O)c2cc3sc(Cl)cc3n2C)cc1 -3.49%, O=C(Cn1cnc(S(=O)(=O)N2CCCC2)c1)Nc1ccc(OC(F)(F)F)cc1 -7.23%, Cc1ccccc1Nc1nnc(-c2ccc(C)c(S(=O)(=O)N3CCOCC3)c2)c2ccccc12 5.15%, COc1ccc(OC)c(NC(=O)Cn2cnc3c(oc4ccccc43)c2=O)c1 10.5%, COc1ccc(CN2COc3ccc4c(-c5ccccc5)cc(=O)oc4c3C2)cc1 -11.9%, CCOC(=O)c1cc(-c2ccccc2)n(CC(=O)Nc2ccc(OC)cc2OC)c1C -7.83%, CCOc1ccc(NC(=O)C2CCN(S(=O)(=O)c3cc(-c4noc(C)n4)ccc3C)CC2)cc1 0.196%, CC(C)CC(=O)NCc1nc2cccnc2n1Cc1ccccc1 0.841%, Cc1ccccc1CNC(=O)c1ccc(Cn2c(SCc3cccc(F)c3)nc3cccnc32)cc1 -6.68%, CCOC(=O)c1nc(Nc2ccc(C(=O)OCC(C)C)cc2)c2ccccc2n1 -15.6%, O=C(CCc1cn(Cc2ccccc2F)c2ccccc12)NCc1ccc(Cl)cc1 -10.8%, Cc1ccc2oc(C(=O)N(Cc3cccc(F)c3)C3CCS(=O)(=O)C3)c(C)c2c1 (stereo not given) 3.02%, COc1ccc(N2CCN(C(=O)c3cc(S(=O)(=O)N4CCCCCC4)cn3C)CC2)cc1 -2.13%, COc1cccc(NC(=O)N2CCC(n3c(C)nc4cccnc43)CC2)c1 0%, O=C(NCc1ccccc1Cl)C1CCC(CNS(=O)(=O)c2ccc(Cl)cc2)CC1 (stereo not given) -3.25%, COc1cccc(Cn2c(=O)n(-c3ccc(C)c(F)c3)c(=O)c3sc4ccccc4c32)c1 -3.47%, COc1ccc(CNC(=O)C2CCN(Cc3nc(-c4ccc(OC)c(OC)c4)oc3C)CC2)cc1 4.66%, Cc1ccc(-c2cc(C(F)(F)F)n3nc(-c4ccc(Cl)cc4)cc3n2)cc1 -21%, COc1cccc(OC)c1C(=O)Nc1nnc(C)s1 12.6%, O=C(COC(=O)C(Cc1c[nH]c2ccccc12)NC(=O)c1ccc(Br)cc1)c1ccc(Cl)cc1 (stereo not given) -2.63%, COc1ccccc1N1CCN(C(=O)c2sc3nc4n(c(=O)c3c2C)CCC4)CC1 4.42%, CCOc1ccc(C(=O)c2cn(Cc3ccccc3OC)c3cc4c(cc3c2=O)OCCO4)cc1 -8.22%, CCCCN(CC)CCNC(=O)c1cn(CCOC)c(=O)c2c1c1ccccc1n2C -3.53%, CCC(=O)N1CCc2cc(S(=O)(=O)CCC(=O)Nc3ccc(Cl)c(C(F)(F)F)c3)ccc21 -12.1%, O=C(NC1CC(=O)N(c2cccc(F)c2)C1)c1ccc(S(=O)(=O)N2CCOCC2)cc1 (stereo not given) 3.55%, COc1ccccc1CN1COc2ccc3c(C)cc(=O)oc3c2C1 0%, Cc1ccc(NC(=O)Cn2c(=O)oc3ccccc32)cc1Cl 1.14%, CCOC(=O)c1ccc(NC(=O)CSc2ccc(-c3sc(C)nc3C)nn2)cc1 -0.596%, COc1ccc(C(=O)c2oc3ccccc3c2NC(=O)c2ccc(F)cc2)cc1 9.6%, O=C(c1cn(CCOc2ccccc2F)c2ccccc12)C1CCCCC1 -2.29%, COc1ccc(Cn2ccc3nc(C)c(C(=O)N4CCN(c5ccccc5)CC4)cc3c2=O)cc1 -4.95%, CCOC(=O)c1ccc(NC(=O)c2cn(-c3ccccc3)nc2-c2ccc(Br)cc2)cc1 -3.99%, COc1ccc(NC(=O)CSc2oc(-c3cccs3)nc2S(=O)(=O)c2ccc(Br)cc2)c(OC)c1 -2.57%, Cc1nc2ccn(Cc3cccs3)c(=O)c2cc1C(=O)NCc1ccccc1 0.977%, CCc1nonc1NC(=O)c1oc2cc(C)c(Cl)cc2c1C 1.11%, Cc1cccc(Cn2cc(C(=O)c3ccccc3)c(=O)c3cc4c(cc32)OCO4)c1 -0.286%, Cc1ccc(Nc2sc(C(=O)c3ccccc3)c(N)c2C(=O)NC(C)C)cc1 -0.654%, COc1cccc(CN2C(=O)CN(C3CCCCC3)C(=O)C2c2ccc(OC)c(OC)c2)c1 (stereo not given) 6.95%, CCOc1ccc(CNC(=O)C2CCN(S(=O)(=O)c3cn(C)cn3)CC2)cc1OC 11.9%, COc1ccc(C2C=C(c3ccccc3)Nc3nc(NC(=O)/C=C/c4ccc(F)cc4)nn32)cc1 (stereo not given) 1.68%, COc1ccc2c(c1)c1c(c(=O)n(-c3ccccc3C)c(=O)n1CC(=O)N1CCCC1)n2C -2.61%, COc1ccc(-c2cc(C(F)(F)F)c(C#N)c(SCC(=O)Nc3ccccc3F)n2)cc1 -17.5%, COc1ccc(-n2c(/C=C/c3c(C)[nH]c4ccccc34)nc3ccccc3c2=O)cc1 1.38%, Cc1nn(C)c2c1c(-c1ccccc1)cc(=O)n2Cc1ccc(Cl)cc1 -0.0238%, COc1cccc(CNc2nccn(-c3ccc(OC)c(OC)c3)c2=O)c1 1.36%, COc1ccccc1C(=O)Nc1ccc(OCc2cc(=O)n3ccc(C)cc3n2)cc1 -1.72%, CCOc1ccc(S(=O)(=O)N2CCC(N3CCN(Cc4ccc(C)cc4)C(=O)C3=O)CC2)cc1 6.73%, COc1ccc(CNC(=O)c2cnn(-c3ccc(C)cc3)c2-n2cccc2)cc1OC -2.91%, COc1ccc(C)cc1-n1c(-c2ccc(C)cc2)cc2c1CC(C)(C)CC2=O -0.342%, COCc1cc(C)nc2sc3c(c12)NC(c1ccc(O)cc1)N(c1ccc(C)cc1)C3=O (stereo not given) 0.0534%, O=C(OCc1cccc(C(F)(F)F)c1)c1ccc(-c2nnn(Cc3ccc(F)cc3)n2)cc1 -3.3%, CCn1c(=N)c(C(=O)NC2CCCC2)cc2c(=O)n3ccccc3nc21 -21.4%, Cc1nn(C(=O)c2ccccc2)c(C)c1S(=O)(=O)N1CCCCCC1 -0.623%, CCN(C(=O)c1cn(-c2ccc(OC)cc2)c(=O)c2ccccc12)c1cccc(Cl)c1 -24.6%, CC(C)N1CCc2nc(SCC(=O)Nc3cccc(F)c3)[nH]c(=O)c2C1 2.26%
